Here are results for 27 compounds from PubChem BioAssay AID1159614 (National Center for Advancing Translational Sciences (NCATS), 2016).

Hit rate of the full screen: of about 45,000 compounds, about 65 (0.1%) were called active. Calls follow the shape of the dose curve; as a rule, active = well fitted activation curve with a large enough effect; inconclusive = small, poorly fitted or top-dose-only effect; inactive = no such curve, though single readings can be large or run the other way. The list shows a part of the results.

UniProt P54803, sequence (P54803 whole entry, looked up): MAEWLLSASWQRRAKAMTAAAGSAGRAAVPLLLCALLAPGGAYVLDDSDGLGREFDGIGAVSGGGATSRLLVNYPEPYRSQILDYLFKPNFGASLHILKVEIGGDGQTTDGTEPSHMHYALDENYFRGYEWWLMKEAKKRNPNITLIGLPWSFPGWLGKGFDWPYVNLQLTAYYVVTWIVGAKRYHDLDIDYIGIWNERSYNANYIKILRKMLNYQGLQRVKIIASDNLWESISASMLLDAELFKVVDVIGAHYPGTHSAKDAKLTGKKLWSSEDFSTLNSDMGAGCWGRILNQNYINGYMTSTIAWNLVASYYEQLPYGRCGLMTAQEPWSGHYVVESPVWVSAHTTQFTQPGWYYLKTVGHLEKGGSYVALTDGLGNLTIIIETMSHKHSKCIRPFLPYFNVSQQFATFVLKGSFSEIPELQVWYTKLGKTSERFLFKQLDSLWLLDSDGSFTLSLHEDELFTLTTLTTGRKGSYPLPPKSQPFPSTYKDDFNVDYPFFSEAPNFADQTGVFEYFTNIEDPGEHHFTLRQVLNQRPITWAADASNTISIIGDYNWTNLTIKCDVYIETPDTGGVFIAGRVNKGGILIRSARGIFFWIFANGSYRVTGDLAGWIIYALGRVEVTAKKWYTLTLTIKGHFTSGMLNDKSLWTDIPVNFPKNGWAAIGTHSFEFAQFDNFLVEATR

The target of this experiment is Galactocerebrosidase (Homo sapiens) (UniProt P54803). Kind of experiment: A Novel Cell-Based Assay to Identify Small Molecules for B -Galactocerebrosidase. Also: 0% is about no effect; nearly all actives have a fitted effect of over 65% in size. To be noted: 145M-Twi-hGALC-G270D cells (Twitcher mouse brain line with human GALC G270D), HMU-beta-Gal fluorescence, 48 h; series mostly up to 57.5 µM; activation: at the top concentration. In a few lines:
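Live 145M-Twi cells (Twitcher mouse brain-derived, GALC-null) stably expressing human GALC-G270D, with a wild-type GALC line, were compound-treated. Residual GALC activity was then read as fluorescence from 0.1 mM final HMU-β-gal at pH 5.2; higher signal means activation.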
`Cc1ccccc1C(=O)Nc1ccc(C(=O)N2CCCC(O)c3cc(Cl)ccc32)c(C)c1` (configuration not stated): the “activation” value was inactive: -5.63%.

As for `CC(C)COc1ccc(C(=O)N(Cc2cccc(F)c2)C2CCS(=O)(=O)C2)cc1` (configuration not stated), the “activation” value was inactive: -10.5%.

With `CCOc1ccc(S(=O)(=O)NCc2cccn2Cc2cccc(C)c2)cc1`, the “activation” value was inactive: -4.02%.

`Cc1ccc(NS(=O)(=O)c2c(C)nc3sc(C)c(C)n3c2=O)cc1F`: the “activation” value was inactive: -0.485%.

For `CCc1cccc(C)c1NC(=O)C(NS(=O)(=O)c1ccc2c(c1)CCC(=O)N2)c1ccccc1` (configuration not stated), the “activation” value was inactive: -14.3%.

For `CC[N+](CC)(CC)CCOc1ccc(/C=C/c2ccccc2)cc1`, the “activation” value is inactive: 1.98%.

Consider `CCN1CCc2c(sc(-n3cccc3)c2C(CCC(C)C)NC(=O)NCCC(=O)OC)C1` (configuration not stated), for which the “activation” value is inactive: -10.8%.

Turning to `CCCn1c2ccccc2c2cnn(CC(=O)NCCCOC(C)C)c(=O)c21`, the “activation” value is inactive: -10.1%.

Turning to `COc1cccc(-c2nc(CS(=O)(=O)CC(=O)Nc3ccc(C)c(Cl)c3)c(C)o2)c1`, the “activation” value was inactive: -46.7%.

Regarding `Cc1cccc(NC(=O)c2cc3c([nH]c2=O)CC(c2ccccc2)CC3=O)c1` (configuration not stated), the “activation” value is inactive: -4.35%.

With `COc1ccc(CCNC(=O)Cc2ccc(NC(=O)N3CCSc4ncccc43)cc2)cc1OC`, the “activation” value was inactive: -12%.

Turning to `O=C(CSc1nc2ccsc2c(=O)n1-c1ccc(Br)cc1)NCc1ccc(Cl)cc1`, the “activation” value is inactive: -13.8%.

On to `COc1cc(C(=O)NCc2nc(-c3ccc(Cl)cc3)no2)cc(OC)c1OC`, for which the “activation” value was inactive: -11%.

With `COC(=O)CCNC(=O)N1CCN(c2nnc(C)c3c(C)n(-c4ccccc4)nc23)CC1`, the “activation” value is inactive: -18.1%.

Take `O=C(Cn1c(=O)n(Cc2ccc(F)cc2)c(=O)c2sc3ccccc3c21)Nc1ccc(F)cc1F`: the “activation” value is inactive: -18.7%.

For `COc1cccc(CNC(=O)Cn2cccc2C(=O)c2ccccc2)c1`, the “activation” value was inactive: -5.77%.

As to `Cc1cccc(CN2C(=O)c3ccccc3S(=O)(=O)c3ccc(C(=O)OCC4CCCO4)cc32)c1` (configuration not stated), the “activation” value was inactive: -0.93%.

For `CCc1ccc(CNC(=O)C2COc3ccccc3C2)cc1` (configuration not stated), the “activation” value is inactive: -3.2%.

Regarding `COc1cc(NS(=O)(=O)c2cc3[nH]c(=O)[nH]c3cc2C)cc(OC)c1OC`, the “activation” value was inactive: -1.83%.

`Cc1cccc(C)c1NC(=O)CC12CCCN1CCC2`: the “activation” value was inactive: -10.8%.

For the compound `COc1ccc(NC(=O)CSCc2cc(=O)c3cc(Cl)ccc3[nH]2)cc1`, the “activation” value is inactive: -2.94%.

Turning to `Cc1ccc(N2CC(NC(=O)C3CCCCC3)CC2=O)cc1` (configuration not stated), the “activation” value is inactive: -7.91%.

`CCOC(=O)c1cc(S(=O)(=O)N2CCN(c3ccccc3OC)CC2)[nH]n1`: the “activation” value was inactive: -9.34%.

As to `Cc1cccc(C(=O)Nc2cc(-c3ccccc3F)nn2-c2ccccc2)c1`, the “activation” value is inactive: -13.6%.

On to `CCOc1ccc(C2CC(=O)Nc3c2c(=O)[nH]c2ncnn32)cc1` (configuration not stated), for which the “activation” value is inactive: -7.04%.

With `CCc1ccc(C(=O)c2cn(CC(=O)Nc3ccc(F)cc3)c3ccc(F)cc3c2=O)cc1`, the “activation” value is inactive: -21.8%.

As for `CCn1c(CNC(=O)c2ccc(OC)cc2)nnc1SCC(=O)Nc1ccc(F)cc1`, the “activation” value was inactive: 8.12%.
